# Measured values reported in publication PMC9911399, “Two distinct binding modes provide the RNA-binding protein RbFox with extraordinary sequence specificity”.
# Substitutions are numbered along the chain they refer to; changes in the protein carry UniProt numbers. This is one part of the list.
# T1: RBFOX1 RRM RbFoxmut (Fox-RRM*) (Homo sapiens, UniProt Q9NWB1 109-208, R118D;E147R;N151S;E152T)
# T1 sequence: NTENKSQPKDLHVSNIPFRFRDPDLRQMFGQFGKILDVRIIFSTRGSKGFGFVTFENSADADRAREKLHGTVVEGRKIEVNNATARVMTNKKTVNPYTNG
# B1: AGAAUGA (DNA:RNA)
# RNA: GGGAGACCGGAAUUCAGAUUGUCCAGAAUGAUUAAAUCCCGUCGUAGCCACCA
# DNA 1: CAATCTGAATTCCGGTCTCCC
# DNA 2: TGGTGGCTACGACGGGATT
# B2: UGCCCUG (DNA:RNA)
# RNA: B1 RNA with A25U, A27C, A28C, U29C, G30U, A31G
# DNA 1: CAATCTGAATTCCGGTCTCCC
# DNA 2: TGGTGGCTACGACGGGATT
# B3: CCCUGCU (DNA:RNA)
# RNA: GGGAGACCGGAAUUCAGAUUGUCCCCCUGCUUUAAAUCCCGUCGUAGCCACCA
# DNA 1: CAATCTGAATTCCGGTCTCCC
# DNA 2: TGGTGGCTACGACGGGATT
# B4: GUUCCAU (DNA:RNA)
# RNA: B3 RNA with C25G, C26U, C27U, U28C, G29C, C30A
# DNA 1: CAATCTGAATTCCGGTCTCCC
# DNA 2: TGGTGGCTACGACGGGATT
# B5: GGUGGCC (DNA:RNA)
# RNA: B3 RNA with C25G, C26G, C27U, U28G, U31C
# DNA 1: CAATCTGAATTCCGGTCTCCC
# DNA 2: TGGTGGCTACGACGGGATT
# B6: AGACACA (DNA:RNA)
# RNA: B1 RNA with A28C, U29A, G30C
# DNA 1: CAATCTGAATTCCGGTCTCCC
# DNA 2: TGGTGGCTACGACGGGATT
# B7: ACCAAGA (DNA:RNA)
# RNA: B1 RNA with G26C, A27C, U29A
# DNA 1: CAATCTGAATTCCGGTCTCCC
# DNA 2: TGGTGGCTACGACGGGATT
# B8: CAAAGCU (DNA:RNA)
# RNA: B3 RNA with C26A, C27A, U28A
# DNA 1: CAATCTGAATTCCGGTCTCCC
# DNA 2: TGGTGGCTACGACGGGATT
# B9: GUCGUUC (DNA:RNA)
# RNA: B1 RNA with A25G, G26U, A27C, A28G, G30U, A31C
# DNA 1: CAATCTGAATTCCGGTCTCCC
# DNA 2: TGGTGGCTACGACGGGATT
# B10: GGCUAGA (DNA:RNA)
# RNA: B1 RNA with A25G, A27C, A28U, U29A
# DNA 1: CAATCTGAATTCCGGTCTCCC
# DNA 2: TGGTGGCTACGACGGGATT
# B11: UCGUUGG (DNA:RNA)
# RNA: B1 RNA with A25U, G26C, A27G, A28U, A31G
# DNA 1: CAATCTGAATTCCGGTCTCCC
# DNA 2: TGGTGGCTACGACGGGATT
# B12: AUAAGUG (DNA:RNA)
# RNA: B1 RNA with G26U, U29G, G30U, A31G
# DNA 1: CAATCTGAATTCCGGTCTCCC
# DNA 2: TGGTGGCTACGACGGGATT
# B13: GUAGGGA (DNA:RNA)
# RNA: B1 RNA with A25G, G26U, A28G, U29G
# DNA 1: CAATCTGAATTCCGGTCTCCC
# DNA 2: TGGTGGCTACGACGGGATT
# B14: ACAGUUA (DNA:RNA)
# RNA: B1 RNA with G26C, A28G, G30U
# DNA 1: CAATCTGAATTCCGGTCTCCC
# DNA 2: TGGTGGCTACGACGGGATT
# B15: CGCACUC (DNA:RNA)
# RNA: B1 RNA with A25C, A27C, U29C, G30U, A31C
# DNA 1: CAATCTGAATTCCGGTCTCCC
# DNA 2: TGGTGGCTACGACGGGATT
# B16: CCAGGCG (DNA:RNA)
# RNA: B3 RNA with C27A, U28G, U31G
# DNA 1: CAATCTGAATTCCGGTCTCCC
# DNA 2: TGGTGGCTACGACGGGATT
# B17: UAUCCAA (DNA:RNA)
# RNA: B1 RNA with A25U, G26A, A27U, A28C, U29C, G30A
# DNA 1: CAATCTGAATTCCGGTCTCCC
# DNA 2: TGGTGGCTACGACGGGATT
# B18: ACAUAGG (DNA:RNA)
# RNA: B1 RNA with G26C, A28U, U29A, A31G
# DNA 1: CAATCTGAATTCCGGTCTCCC
# DNA 2: TGGTGGCTACGACGGGATT
# B19: UGUUUUA (DNA:RNA)
# RNA: B1 RNA with A25U, A27U, A28U, G30U
# DNA 1: CAATCTGAATTCCGGTCTCCC
# DNA 2: TGGTGGCTACGACGGGATT
# B20: AGAGAUU (DNA:RNA)
# RNA: B1 RNA with A28G, U29A, G30U, A31U
# DNA 1: CAATCTGAATTCCGGTCTCCC
# DNA 2: TGGTGGCTACGACGGGATT
# B21: GAGAACA (DNA:RNA)
# RNA: B1 RNA with A25G, G26A, A27G, U29A, G30C
# DNA 1: CAATCTGAATTCCGGTCTCCC
# DNA 2: TGGTGGCTACGACGGGATT
# B22: CGUGGGU (DNA:RNA)
# RNA: B3 RNA with C26G, C27U, U28G, C30G
# DNA 1: CAATCTGAATTCCGGTCTCCC
# DNA 2: TGGTGGCTACGACGGGATT
# B23: CGCGUUG (DNA:RNA)
# RNA: B1 RNA with A25C, A27C, A28G, G30U, A31G
# DNA 1: CAATCTGAATTCCGGTCTCCC
# DNA 2: TGGTGGCTACGACGGGATT
# B24: ACGCGAG (DNA:RNA)
# RNA: B3 RNA with C25A, C27G, U28C, C30A, U31G
# DNA 1: CAATCTGAATTCCGGTCTCCC
# DNA 2: TGGTGGCTACGACGGGATT
# B25: UGGGGAG (DNA:RNA)
# RNA: B1 RNA with A25U, A27G, A28G, U29G, G30A, A31G
# DNA 1: CAATCTGAATTCCGGTCTCCC
# DNA 2: TGGTGGCTACGACGGGATT
# B26: ACUCAAC (DNA:RNA)
# RNA: B1 RNA with G26C, A27U, A28C, U29A, G30A, A31C
# DNA 1: CAATCTGAATTCCGGTCTCCC
# DNA 2: TGGTGGCTACGACGGGATT
# B27: AAGUUGA (DNA:RNA)
# RNA: B1 RNA with G26A, A27G, A28U
# DNA 1: CAATCTGAATTCCGGTCTCCC
# DNA 2: TGGTGGCTACGACGGGATT
# B28: GUAAAGC (DNA:RNA)
# RNA: B1 RNA with A25G, G26U, U29A, A31C
# DNA 1: CAATCTGAATTCCGGTCTCCC
# DNA 2: TGGTGGCTACGACGGGATT
# B29: GCGACUC (DNA:RNA)
# RNA: B1 RNA with A25G, G26C, A27G, U29C, G30U, A31C
# DNA 1: CAATCTGAATTCCGGTCTCCC
# DNA 2: TGGTGGCTACGACGGGATT
# B30: CAACCUC (DNA:RNA)
# RNA: B1 RNA with A25C, G26A, A28C, U29C, G30U, A31C
# DNA 1: CAATCTGAATTCCGGTCTCCC
# DNA 2: TGGTGGCTACGACGGGATT
# B31: GGUUGAC (DNA:RNA)
# RNA: B3 RNA with C25G, C26G, C27U, C30A, U31C
# DNA 1: CAATCTGAATTCCGGTCTCCC
# DNA 2: TGGTGGCTACGACGGGATT
# Molecular target: T1, RBFOX1 RRM RbFoxmut (Fox-RRM*)
# Assay: EMSA; HiTS-Eq, 1 nM pool, 10 min; buffer printed only for the single-RNA assays: 10 mM Tris pH 7.5, 150 mM NaCl, 3.4 mM EDTA, 0.001% NP-40, 30 C
# Details: tags: His6 N-terminal (pET28a); label: 5' 32P
# In short: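 A pool of RNA with 7 randomized nucleotides, 5′-radiolabelled and with DNA-annealed flanks, was equilibrated at 1 nM for 10 min in 50 µL with purified RbFox RRM, wild type or mutant, across increasing protein concentrations. Free RNA was separated by 8% native PAGE, excised, reverse-transcribed, barcoded by PCR and sequenced. Relative association constants were obtained from read-count changes of each RNA species versus the control reaction and normalised to the cognate motif.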
row,Binder,binding signal
1,B1,0.646 KA relative to UGCAUGU
2,B2,0.123 KA relative to UGCAUGU
3,B3,0.092 KA relative to UGCAUGU
4,B4,0.0957 KA relative to UGCAUGU
5,B5,0.19 KA relative to UGCAUGU
6,B6,0.0613 KA relative to UGCAUGU
7,B7,0.0797 KA relative to UGCAUGU
8,B8,0.069 KA relative to UGCAUGU
9,B9,0.0878 KA relative to UGCAUGU
10,B10,0.0874 KA relative to UGCAUGU
11,B11,0.109 KA relative to UGCAUGU
12,B12,0.173 KA relative to UGCAUGU
13,B13,0.0673 KA relative to UGCAUGU
14,B14,0.122 KA relative to UGCAUGU
15,B15,0.075 KA relative to UGCAUGU
16,B16,0.106 KA relative to UGCAUGU

row,Binder,binding signal
1,B17,0.0448 KA relative to UGCAUGU
2,B18,0.0939 KA relative to UGCAUGU
3,B19,0.115 KA relative to UGCAUGU
4,B20,0.088 KA relative to UGCAUGU
5,B21,0.0771 KA relative to UGCAUGU
6,B22,0.129 KA relative to UGCAUGU
7,B23,0.139 KA relative to UGCAUGU
8,B24,0.132 KA relative to UGCAUGU
9,B25,0.135 KA relative to UGCAUGU
10,B26,0.034 KA relative to UGCAUGU
11,B27,0.107 KA relative to UGCAUGU
12,B28,0.0769 KA relative to UGCAUGU
13,B29,0.0666 KA relative to UGCAUGU
14,B30,0.055 KA relative to UGCAUGU
15,B31,0.102 KA relative to UGCAUGU
